# Measured values taken from PubChem BioAssay AID1346428 (National Center for Advancing Translational Sciences (NCATS), 2018).
# Out of some 48,000 compounds screened, about 1,200 (2.5%) were called active. Another 2% or so got no clear call; they are omitted.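 The calls were made as follows: active = activation of at least 60% and not above a set upper limit (about 1 call in 100 departs from these limits); inconclusive = activation of 40% to 60%, or above that upper limit; inactive = activation under 40%.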 The list shows a part of the results.
# Biological target: Probable G-protein coupled receptor 32 (Homo sapiens) (UniProt O75388)
# UniProt O75388, sequence (O75388 whole entry, looked up): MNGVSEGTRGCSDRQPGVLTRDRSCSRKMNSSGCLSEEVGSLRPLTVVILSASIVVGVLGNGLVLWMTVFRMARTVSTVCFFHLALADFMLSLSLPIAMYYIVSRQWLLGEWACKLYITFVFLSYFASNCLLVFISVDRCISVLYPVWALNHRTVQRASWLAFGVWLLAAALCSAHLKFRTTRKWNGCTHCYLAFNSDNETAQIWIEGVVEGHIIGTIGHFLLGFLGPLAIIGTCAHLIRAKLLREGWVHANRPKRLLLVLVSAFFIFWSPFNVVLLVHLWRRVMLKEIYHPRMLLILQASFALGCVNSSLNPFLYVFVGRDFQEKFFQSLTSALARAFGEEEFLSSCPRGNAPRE
# Test: qHTS for Agonists of Human Resolvin D1 Receptor DRV1
# Conditions: CHO-K1 GPR32 beta-arrestin PathHunter luminescence, 90 min; at 76.9 µM; stronger effect = higher value; zero percent set by DMSO-only wells
# How it was run: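 PathHunter enzyme-fragment complementation, CHO-K1 GPR32 stable line; 2,500 cells/well, overnight attach; cpd 90 min 37 °C 5% CO2; detection reagent 1 h RT; chemiluminescence. DMSO = EC0.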
row,SMILES,activation
1,CCCC12CN3CC(CCC)(CN(C1)C3c1ccccc1)C2=O (stereo not given),inactive: -5.45%
2,CCOC(=O)c1cc(S(=O)(=O)N2CCN(c3ccc(C(C)=O)cc3)CC2)[nH]n1,inactive: -17%
3,CCS(=O)(=O)c1nc(S(=O)(=O)c2ccc(C)cc2)c(NCCCOC)s1,inactive: -3.06%
4,COc1ccc(N2CC(NC(=O)c3ccco3)CC2=O)cc1 (stereo not given),inactive: -2.49%
5,Nc1cc(=O)nc(SCC(=O)Nc2ccc(F)cc2)n1CCc1ccccc1,inactive: 2.66%
6,O=c1onc2n1-c1cc(Br)ccc1OC2,active: 64.5%
7,CCn1c(CNC(=O)c2ccc(OC)cc2)nnc1SCC(=O)Nc1ccc(C)cc1,inactive: 11.4%
8,Cc1cc2oc3c(c(=O)c2cc1C)C1(C(=O)N(C)c2ccccc21)N(CCO)C3=O (stereo not given),inactive: -16.4%
9,CCN(CC)CCNC(=O)c1ccc2nc(CCc3ccccc3)oc2c1,inactive: 9.96%
10,COc1ccccc1NC(=O)C1CCN(C(=O)c2sc3nc[nH]c(=O)c3c2C)CC1,inactive: -14.9%
11,O=C(Nc1ccccc1Br)C(Cc1ccccc1)NS(=O)(=O)c1cccc2nsnc12 (stereo not given),inactive: -22.3%
12,COc1ccc(CNC(=O)Cn2ncc3c([nH]c4ccccc43)c2=O)cc1,inactive: 5.62%
13,Cc1cccc(CCNC(=O)CCc2c(C)nc3c4c(C)cc(C)nc4nn3c2C)c1,inactive: -9.26%
14,Cc1nn(-c2ccc(N3CCCC3)nn2)c(C)c1CCC(=O)Nc1ccc(F)cc1F,inactive: -5.82%
15,CCc1cccc(C)c1NC(=O)Cn1c(=O)cc(C)c2c(C)nn(-c3cccc(F)c3)c21,inactive: -5.7%
16,Cc1c(C(=O)Nc2ccccc2F)sc2ncnc(N(C)C3CCCCC3)c12,inactive: 11.9%
17,COc1ccccc1N1CCN(c2cc(C)nc3nc(-c4ccc(C)cc4)nn23)CC1,inactive: -13%
18,O=C(NCc1ccc(F)cc1)c1ccc(Nc2nc3ccccc3n3nnnc23)cc1,inactive: -0.273%
19,CCCc1ccc(-c2ccc(C(=O)Oc3ccc(OCC)cc3)cc2)nc1,inactive: 9.13%
20,CCCCN(C)S(=O)(=O)c1ccc(C(=O)Nc2sc3c(c2C(N)=O)CC(C)(C)NC3(C)C)cc1,inactive: 13.1%
21,CCN(Cc1ccccc1)C(=O)Cn1c(=O)n(-c2ccc(Cl)cc2)c(=O)c2c(C)c(C(=O)N(C)C)sc21,inactive: -12.3%
22,Cc1c(CCC(=O)NCc2cccc(Cl)c2)c(=O)oc2c(C)c(O)ccc12,inactive: 23.3%

row,SMILES,activation
1,Cc1ccc(CCNC(=O)CS(=O)Cc2nc(-c3ccccc3C)oc2C)cc1 (stereo not given),inactive: 3.04%
2,O=C(CSc1nc2c(oc3ccccc32)c(=O)n1Cc1ccco1)Nc1ccccc1Cl,inactive: -11%
3,O=C(Cn1cnc2c(oc3ccccc32)c1=O)Nc1ccc(F)cc1F,inactive: -15.4%
4,CCc1ccc(OCc2nc(-c3ccc(OC)cc3)no2)c(Br)c1,inactive: -18.8%
5,CCCc1ncc(C(=O)O)s1,inactive: -6.33%
6,O=C(Cn1ncc2c3ccccc3n(Cc3cccc(Cl)c3)c2c1=O)NCc1cccs1,inactive: -0.712%
7,O=C(Nc1nc2ccccc2s1)c1ccc(S(=O)(=O)N2CCCC2)cc1,inactive: -12.7%
8,CCOc1ccc(C2C(=O)N(C3CCCCCC3)CC(=O)N2CCc2ccc(OC)c(OC)c2)cc1OC (stereo not given),inactive: -28.1%
9,O=S(=O)(c1ccc2nc(NCc3ccccc3Cl)ccc2c1)N1CCCCC1,inactive: -43.5%
10,CC(CNC(=O)c1ccc(CSc2nc3ccncc3n2Cc2ccccc2)cc1)c1ccccc1 (stereo not given),inactive: -10.5%
11,COc1ccc(CNC(=O)CSc2nc(-c3ccc(OC)c(OC)c3)cc(C(F)(F)F)n2)cc1,inactive: -11%
12,Cc1c(Cl)cccc1-n1nc(C)c2c(C)cc(=O)n(CC(=O)N3CCCc4ccccc43)c21,inactive: -8.41%
13,COc1ccc(-c2nc3ccccc3n3c(-c4ccc(OC)cc4)c4c(=O)n(C)c(=O)n(C)c4c23)cc1,inactive: 1.79%
14,Cc1ccc(CNC(=O)CCCN2C(=O)CCn3nc(-c4cccn4C)cc32)cc1,inactive: -9.42%
15,Cc1cc2oc3c(c(=O)c2cc1C)C(c1ccc(C(C)C)cc1)N(c1nc(C)c(C)s1)C3=O (stereo not given),inactive: -0.586%
16,CCCNC(=O)C1CCN(c2nc3ccc(C)cc3[nH]2)CC1,inactive: -16.1%
17,CCCOc1ccc(CNC(=O)C2CCN(C(=O)c3sccc3-n3cccc3)CC2)cc1,inactive: -12.2%
18,Cc1cnc(=O)[nH]c1SCC(=O)Nc1cc(C(F)(F)F)ccc1Cl,inactive: -0.474%
19,CCOC(=O)c1ccc2c(c1)N(Cc1ccc(F)cc1Cl)C(=O)c1ccccc1S2,inactive: -29.5%
20,Cc1cccc(C(=O)Nc2ccc(N3CCC(N4CCCCC4)CC3)c(C(=O)O)c2)c1,inactive: -6.7%
21,CCN1CCN(c2cc(C)c3cc(NC(=O)/C=C/c4ccc(C)cc4)ccc3n2)CC1,inactive: -8.31%
22,COc1cccc(NC(=O)N(Cc2cn(C)c3ccccc23)C2CCCCCC2)c1,inactive: -1.49%

row,SMILES,activation
1,COCCNC(=O)CSc1nc(-c2ccccc2)[nH]c1-c1ccc(C)cc1,inactive: -22.5%
2,Cc1ccc(C)n1-c1nnc(N2CCCC(C(=O)NCc3cccc(Br)c3)C2)s1 (stereo not given),inactive: 9.96%
3,COc1cc(CNc2ccc3[nH]c(=O)[nH]c3c2)cc(Br)c1OCc1ccccc1F,inactive: 5.59%
4,Cc1cccc(CN2CCN(CC(=O)Nc3c(C)cccc3C)S2(=O)=O)c1,inactive: -19.1%
5,NC1=NC(c2cc(F)cc(F)c2)n2c(nc3ccccc32)N1 (stereo not given),inactive: 46.3%
6,CC1=C(C(=O)NCc2ccc(Cl)cc2)C2(CCC(C)CC2)OC1=O (stereo not given),inactive: -21.6%
7,Cc1ccc(CNC(=O)CCc2c(C)nc3c4c(C)cc(C)nc4nn3c2C)cc1,inactive: 9.99%
8,Cc1ccc(Cl)cc1NC(=O)CC1Sc2ccccc2NC1=O (stereo not given),inactive: 14.5%
9,COc1cccc(NC(=O)Cn2c(-c3nonc3N)nc3ccccc32)c1,inactive: 2.04%
10,COc1ccccc1N1CCN(c2csc3ccccc3c2=O)CC1,inactive: -25.9%
11,Cc1cccc(C)c1Nc1c(-c2ccsc2)nc2cccc(C)n12,inactive: -6.32%
12,COc1cc(NC(=O)CCS(=O)(=O)c2ccc3c(c2)n(C)c(=O)c(=O)n3C)cc(OC)c1,inactive: -23%
13,Cc1cccc(NC(=O)N2CCN3CCCCC3C2)c1C (stereo not given),inactive: -9.91%
14,CCc1ccc(Sc2cc(C(=O)NCCCN3CCC(C)CC3)c3ccccc3n2)cc1,active: 89.4%
15,COC(=O)c1cc2oc3ccccc3c2n1Cc1ccccc1Cl,inactive: -9.18%
16,COc1ccccc1CNC(=O)CCCCn1c(=O)c2ccccc2n(CC(=O)Nc2cccc(Cl)c2)c1=O,inactive: 2.38%
17,CCOc1ccc(/C=C/c2nc(C#N)c(N3CCC(C)CC3)o2)cc1,inactive: -29.8%
18,O=c1c(-c2cc(-c3ccccc3)nc3c2COc2ccccc2-3)coc2ccc(Cl)cc12,inactive: 5.71%
19,Cc1ccc(-n2ncc3c(N4CCN(c5ccc(F)cc5)CC4)ncnc32)cc1,inactive: 20.4%
20,COc1ccc2oc(-c3ccc(NC(=O)c4ccc(Cl)cc4Cl)cc3)nc2c1,inactive: 37.8%
21,COc1ccc(CNC(=O)C(=O)Nc2cccc(C)c2C)cc1,inactive: 43%
22,CCc1ccc(NC(=O)C2CCCN(c3nnc(C)c4c(C)n(-c5ccccc5)nc34)C2)cc1 (stereo not given),inactive: 4%

row,SMILES,activation
1,O=C(Nc1cc(Cl)ccc1Cl)c1cc(S(=O)(=O)N2CCc3ccccc3C2)ccc1F,inactive: -21.3%
2,CN1CCN(C2=Nc3ccccc3Sc3ccc(Cl)cc32)CC1,inactive: -0.665%
3,O=C(Cn1c(-c2cccs2)cc2ccccc21)N1CCN(c2ccc(F)cc2)CC1,inactive: -10.9%
4,COC(=O)c1c(-c2cccs2)csc1NC(=O)c1ccc(C)cc1,inactive: -2.33%
5,COc1ccc(OC)c(C(=O)CN2C(=O)N(c3ccc(C)cc3)S(=O)(=O)c3ccccc32)c1,inactive: -32.6%
6,Cc1ccc(CNS(=O)(=O)c2ccc3c(c2)CC(C)N3C(=O)C2CCC2)cc1 (stereo not given),inactive: 13.9%
7,Cc1cc(Br)ccc1NC(=O)c1c(C)oc2ncnc(N3CCCCC3)c12,inactive: -6.41%
8,Cc1ccccc1N1CC(c2nc3ccccc3n2Cc2ccc(Br)cc2)CC1=O (stereo not given),active: 91.7%
9,COc1ccccc1NC(=O)Cn1c(=O)n(CC2CCC(C(=O)NCCc3ccccc3)CC2)c(=O)c2ccccc21 (stereo not given),inactive: -17.5%
10,CCOC(=O)CSc1nc2sc3c(c2c(=O)n1-c1ccc(OC)cc1)CC(C(C)C)OC3 (stereo not given),inactive: 5.81%
11,Cc1cc(NC(=O)c2cc(-c3ccc(Cl)c(Cl)c3)on2)n(-c2ccccc2)n1,inactive: -4.3%
12,CCOc1ccc(CNC(=O)C2CCN(C(=O)N3CC(CC)Oc4ccc(C)cc43)CC2)cc1OC (stereo not given),inactive: -19.2%
13,CCOC(=O)N1CCc2c(sc3c2C(=O)NC(c2ccc(C(=O)OC)cc2)N3)C1 (stereo not given),inactive: -2.46%
14,Cc1nnc(SCC(=O)Nc2ccc(N(C)C)cc2)[nH]c1=O,inactive: 15.5%
15,CCc1ccc(NC(=O)Cn2c(=O)n(CCCC(=O)NCCc3ccc(OC)c(OC)c3)c(=O)c3ccccc32)cc1,inactive: 28.6%
16,COCCNC(=O)CN1C(=O)COc2ccc(S(=O)(=O)N3CCCC3)cc21,inactive: 8.63%
17,CCN(CC)CCOC(=O)c1ccc(NC(=O)c2cc3cc(OC)ccc3oc2=O)cc1,inactive: 13.8%
18,CCOc1ccc(Sc2cc(C(=O)NCc3ccccc3Cl)c3ccccc3n2)cc1,inactive: -19.2%
19,Cc1ccccc1NC(=O)CCn1nc(-c2ccccc2)c2ccccc2c1=O,inactive: -16.5%
